Results published in patent US20190330313A1 (HANX BIOPHARMACEUTICS, published 2019).

What was measured:
PD-1-hIgGFc antigen [1] = target: T1, PD-1-hIgGFc antigen (human, UniProt Q15116 partial chain, limits assumed); assay: competitive ELISA, PD-1-hIgGFc coated, competitor PDL1-mIgG2aFc 0.3 µg/ml
T1 construct: not shown: human IgG Fc (hIgGFc)
Description: A 96-well ELISA plate was coated with PD-1-hIgGFc antigen in a concentration of 0.5 μg/ml (50 μl per well) by incubation at 4° C. overnight.

PD-1-hIgGFc antigen [2] = target: T1, PD-1-hIgGFc antigen; assay: competitive ELISA, PD-1-hIgGFc coated, competitor PDL2-his tag 0.5 µg/ml
Description: A 96-well ELISA plate was coated with PD-1-hIgGFc antigen in a concentration of 1.0 μg/ml (100 μl per well) by incubation at 4° C. overnight.
After the 96-well ELISA plate was washed with the PBST buffer for five times and gently patted to dryness, HRP-conjugated monoclonal mouse anti-his tag as a secondary antibody in 1:750 dilution (50 μl per well) was added for incubation at 37° C. for 1 hour.

PD-1-his antigen = target: T2, PD-1-his antigen (UniProt Q15116 partial chain, limits assumed); assay: ELISA, PD-1-his coated at 0.25 µg/ml
T2 construct: not shown: his tag
Description: An ELISA plate was coated with PD-1-his antigen in a concentration of 0.25 μg/ml (100 μl per well) by incubation at 4° C. overnight.
The ELISA plate coated with the PD-1-his antigen was blocked with 1% BSA in the PBS buffer at 37° C. for 2 hours and washed with 1×PBST buffer containing 1% Tween-20 for three times, with gently patting to dryness.

T1 sequence (Q15116 25-167 limits assumed): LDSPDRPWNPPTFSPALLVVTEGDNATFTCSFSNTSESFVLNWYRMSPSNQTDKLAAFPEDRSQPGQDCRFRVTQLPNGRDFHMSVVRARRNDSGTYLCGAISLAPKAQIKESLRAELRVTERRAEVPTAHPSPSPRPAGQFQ
Chain of PD-1-his antigen (Q15116 25-167 limits assumed): as above

B1: humanized H2L2 antibody (IgG-like antibody against PD-1, wild-type) (antibody)
heavy: EVQLVQSGGGLVQPGGSLKLSCAASGFTFSSYGMSWVRQAPGKGLDWVATISGGGRDTYYPDSVKGRFTISRDNSKNNLYLQMNSLRAEDTALYYCARQKGEAWFAYWGQGTLVTVSSASTKGPSVFPLAPCSRSTSESTAALGCLVKDYFPEPVTVSWNSGALTSGVHTFPAVLQSSGLYSLSSVVTVPSSSLGTKTYTCNVDHKPSNTKVDKRV[left out - human IgG4 Fc with S228P (EU numbers)]
light: DIVLTQSPASLAVSPGQRATITCRASESVDNYGISFMNWFQQKPGQPPKLLIYAASNKGTGVPARFSGSGSGTDFTLNINPMEENDTAMYFCQQSKEVPWTFGGGTKLEIKRTVAAPSVFIFPPSDEQLKSGTASVVCLLNNFYPREAKVQWKVDNALQSGNSQESVTEQDSKDSTYSLSSTLTLSKADYEKHKVYACEVTHQGLSSPVTKSFNRGEC
notes: also called 18A10 H2L2; wild-type H2L2
Q: What does the source list for B1?
A: EC50 (PD-1-hIgGFc antigen [1]): 0.783 nM; EC50 (PD-1-hIgGFc antigen [2]): 1.58 nM; EC50 (PD-1-his antigen): 0.05 nM
